Measured values as given in the supplement of paper PMC9174493.
Structures can show the parent of a compound that is named as a salt. This is one part of the list. Single values of this set are uncertain. Values with irradiation are relative to irradiated vehicle.

The molecules below were run on A549-Dual (assay: NF-kB reporter (SEAP) activity, viability-corrected, relative to vehicle (fold change vs vehicle); higher = more activation of STING-IRF / NF-kB immune response reporter). Details: 10 µM; irradiation: 8 Gy/4 fr.
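Note: viability correction based on the alamar blue assay, with concentrations leaving 10% survival or less dropped.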

Structure (SMILES)	NF-kB reporter
CS(=O)(=O)O.Fc1ccc(C2CCNCC2COc2ccc3c(c2)OCO3)cc1 (centres undefined) [Paroxetine mesylate]	0.641
Clc1ccccc1C(c1ccccc1)(c1ccccc1)n1ccnc1 [Clotrimazole]	0.34
CCS(=O)(=O)CCn1c([N+](=O)[O-])cnc1C [Tinidazole]	1
Clc1ccc(COC(Cn2ccnc2)c2ccc(Cl)cc2Cl)cc1 (centres undefined) [Econazole]	0.381
O=C(O)c1ccc(NC(=O)C(Cc2ccc(O)cc2)NC(=O)c2ccccc2)cc1 (centres undefined) [Bentiromide]	0.778
OCC(O)C(O)C(OC1OC(CO)C(O)C(O)C1O)C(O)CO (centres undefined) [Lactitol]	0.744
CCNC(=O)CC[C@H](N)C(=O)O [L-Theanine]	0.92
CN(C)CC/C=C1/c2ccccc2Sc2ccc(Cl)cc21 [Chlorprothixene]	1.01
CC(=O)OC1Cc2ccccc2N(C(N)=O)c2ccccc21 (centres undefined) [Eslicarbazepine Acetate]	0.774
COc1ccc(CN(CCN(C)C)c2ncccn2)cc1 [Thonzylamine]	0.903
CC1(C)CCCC(C)(C2CCC3(C)C2C(O)CC2C4(C)CCC(O)C(C)(C)C4C(O)CC23C)O1 (centres undefined) [Panaxatriol]	0.526
CN(C)C(CCOc1cccc2ccccc12)c1ccccc1.Cl (centres undefined) [Dapoxetine HCl]	0.781
CNCC(O)C(O)C(O)C(O)CO.CNCC(O)C(O)C(O)C(O)CO.O=C(O)CN1CCN2CCN(CC(=O)O)CC(=O)[O][Gd]([O]C(=O)C2)[O]C(=O)C1 [Gadopentetate Dimeglumine]	1.62
O=C[C@H](O)[C@@H](O)[C@H](O)[C@H](O)C(=O)O [D-Glucuronic acid]	1.66
CC(=O)O.CC(=O)O.CCC(C)CC(C)CCCCCCCCC(=O)NC1CC(O)C(NCCN)NC(=O)C2C(O)CCN2C(=O)C(C(O)CCN)NC(=O)C(C(O)C(O)c2ccc(O)cc2)NC(=O)C2CC(O)CN2C(=O)C(C(C)O)NC1=O (centres undefined) [Caspofungin Acetate]	1.06
CC(OC(=O)OC1CCCCC1)OC(=O)C1=C(CSc2nnnn2CCN(C)C)CSC2C(NC(=O)Cc3csc(N)n3)C(=O)N12.Cl.Cl (centres undefined) [Cefotiam Hexetil Hydrochloride]	1.13
CCCCCN(C)CCC(O)(P(=O)(O)O)P(=O)(O)O.O.[NaH] [Ibandronate sodium]	0.905
CC(O)C1C(=O)N2C(C(=O)O)=C(SC3CNC(CNS(N)(=O)=O)C3)C(C)C12.O (centres undefined) [Doripenem Hydrate]	0.77
CS(=O)(=O)OCCCCOS(C)(=O)=O [Busulfan]	0.806
CCOCCn1c(N2CCCN(C)CC2)nc2ccccc21 [Emedastine]	0.929

Structure (SMILES)	NF-kB reporter
CC1(C)OC2COC3(COS(N)(=O)=O)OC(C)(C)OC3C2O1 (centres undefined) [Topiramate]	0.767
O=C(O)CCCCCCCCC(=O)O [Sebacic acid]	0.826
Nc1nc(=O)[nH]cc1F [Flucytosine]	1.11
CCCCCCCCCCCCCCCCCCOCC(O)CO (centres undefined) [Batyl alcohol]	0.904
CC(CN(C)C)CN1c2ccccc2CCc2ccccc21.O=C(O)/C=C\C(=O)O (centres undefined) [Trimipramine Maleate]	0.767
CCCCCCCC/C=C\CCCCCCCC(=O)OC [Methyl Oleate]	0.637
CC(O)C1C(=O)N2C(C(=O)[O-])=C(SC3Cn4cnc[n+]4C3)C(C)C12 (centres undefined) [Biapenem]	0.789
CN(C)c1cc(NC(=O)CNC(C)(C)C)c(O)c2c1CC1CC3C(N(C)C)C(O)=C(C(N)=O)C(=O)C3(O)C(O)=C1C2=O (centres undefined) [Tigecycline]	0.6
CC(=O)NS(=O)(=O)c1ccc(N)cc1 [Sulfacetamide]	0.846
CN(C)CCOC(C)(c1ccccc1)c1ccccn1.O=C(O)CCC(=O)O (centres undefined) [Doxylamine Succinate]	0.888
CC(C)c1nc(N(C)S(C)(=O)=O)nc(-c2ccc(F)cc2)c1/C=C/C(O)CC(O)CC(=O)[O-].CC(C)c1nc(N(C)S(C)(=O)=O)nc(-c2ccc(F)cc2)c1/C=C/C(O)CC(O)CC(=O)[O-].[Ca+2] (centres undefined) [Rosuvastatin Calcium]	0.654
Cc1cc(C)nc([N]([Na])S(=O)(=O)c2ccc(N)cc2)n1 [Sulfamethazine Sodium Salt]	0.888
Cc1nc2c([nH]1)-c1ccccc1N(C(=O)c1ccc(NC(=O)c3ccccc3-c3ccccc3)cc1)CC2.Cl [Conivaptan HCl]	0.702
O=C(Nc1ccc2c(=O)cc(-c3nnn[nH]3)oc2c1)c1ccc(OCCCCc2ccccc2)cc1 [Pranlukast]	0.43
C[C@H](O)C(=O)O [L-Lactic acid]	1.1
CC1=C(C(=O)O)N2C(=O)C(NC(=O)C(N)C3=CCC=CC3)C2SC1 (centres undefined) [Cefradine]	0.92
O=C1c2c(O)cccc2Cc2cccc(O)c21 [Dithranol]	0.828
O=c1c(-c2ccc(O)cc2)coc2cc(O)ccc12 [Daidzein]	0.84
CC(C)(CO)C(O)C(=O)NCCC(=O)NCCSSCCNC(=O)CCNC(=O)C(O)C(C)(C)CO [D-Pantethine]	0.738
